In the supplement of paper PMC3334620:
Whole data set: some 33,000 sequences, median “E-score (-0.5 to 0.5)” near -0.016, cut for the highest 2% near 0.31. The list shows a part of the results.

Molecular target: Cst6 (UniProt P40535)
Assay: PBM E-score (8-mer binding enrichment) (E-score (-0.5 to 0.5)); higher = stronger / more preferred TF binding; most listed sequences are background and not binding sites
Conditions: protein concentration: 200 nM; construct: GST-DNA-binding domain
Procedure, shortened: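 Each ungapped eight-base word and its reverse complement, pooled, received an E-score from the Universal PBM Analysis Suite. Underlying scans, normalised with masliner, recorded fluorescent anti-GST bound to GST-tagged yeast transcription factors. These were applied at about 100-200 nM to universal all-10-mer Agilent arrays double-stranded by primer extension.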

| Sequence | PBM E-score |
| --- | --- |
| ACCTAGTC | -0.16 |
| AGGGCTAT | -0.315 |
| TCACATCA | 0.298 |
| CCTCATGA | 0.175 |
| GACCACCC | -0.213 |
| TACACGAA | 0.265 |
| ATCCGTTG | -0.002 |
| CAGGATCG | -0.222 |
| AAAGAGAG | -0.103 |
| CCCGGAAA | -0.157 |
| ACTAGCGC | -0.0778 |
| ACTGGCGA | -0.194 |
| ACGACATC | 0.12 |
| CACTACCC | -0.0498 |
| AATGGAAG | 0.0735 |
| CTGCCGAA | -0.155 |
| ACACCGAG | -0.139 |

| Sequence | PBM E-score |
| --- | --- |
| CCTGGAAG | -0.155 |
| ACTAATCA | 0.0843 |
| CAATTTCG | 0.0735 |
| ATAGGGTG | -0.144 |
| GTTGGATA | 0.0478 |
| TCATATCA | 0.251 |
| CCATCCAC | -0.135 |
| AACTGATC | -0.00933 |
| CCGCAACG | 0.0443 |
| ATTATCAA | 0.207 |
| CTCCGACA | -0.11 |
| ACTCTTGG | -0.121 |
| AGGCTCTA | 0.0163 |
| CCCATCGG | -0.251 |
| TCAAGAGA | 0.0347 |
| ATCGCTCC | -0.182 |
| AGTCATCC | -0.0119 |
